The text below walks through data of the antibiotic and cytotoxicity screens of Wong et al. (2023).

Some of the results follow.

For one experiment, the system named is HSkMC. Description: cytotoxicity call (relative viability < 0.9). The conditions noted are these: 10 µM.
A further experiment deals with HepG2. Description: cytotoxicity call (relative viability < 0.9). The conditions noted are these: 10 µM.
The subject of a further experiment is S. aureus RN4220. Description: growth inhibition call (relative growth <= 0.2). The conditions noted are these: 50 µM.

As to `Cc1noc(C)c1NC(=O)N(C)C[C@H]1Oc2ccc(NC(=O)Cn3cnnn3)cc2CC(=O)N([C@H](C)CO)C[C@H]1C`, the cytotoxicity call in the experiment with HSkMC and in the experiment with HepG2 was “inactive” each time. Further, in the experiment on S. aureus RN4220, the growth inhibition call was “inactive”.
For the compound `C[C@H]1CN([C@@H](C)CO)S(=O)(=O)c2ccc(C#Cc3ccc(F)cc3)cc2O[C@H]1CN(C)S(C)(=O)=O`, the cytotoxicity call in the experiment on HSkMC and in the experiment on HepG2 was “inactive” in each case. The growth inhibition call with S. aureus RN4220 was “inactive”.
In the case of `C[C@@H]1CCCCO[C@@H](CN(C)C(=O)Cc2ccccc2)[C@@H](C)CN([C@H](C)CO)C(=O)c2cc(NC(=O)C3CCCCC3)ccc2O1`, the cytotoxicity call in the experiment on HSkMC and in the experiment with HepG2 was “inactive” throughout. The growth inhibition call in the experiment with S. aureus RN4220 was “inactive”.
Take `OCC1(CO)COC2(CCCCC2)N1`: the cytotoxicity call in the experiment with HSkMC and with HepG2 was “inactive” in each case. Besides, the growth inhibition call with S. aureus RN4220 is “inactive”.
In the case of `CN1CCN(C(=O)C[C@H]2CC[C@H]3[C@@H](COC[C@@H](O)CN3C(=O)Nc3ccc4c(c3)OCO4)O2)CC1`, the cytotoxicity call in the experiment on HSkMC and in the experiment on HepG2 was “inactive” in each case. For the same compound, the growth inhibition call in the experiment with S. aureus RN4220 is “inactive”.
As to `Cc1ccc(S(=O)(=O)Nc2ccc3c(c2)CC(=O)N([C@H](C)CO)C[C@H](C)[C@H](CN(C)Cc2ccc(-c4ccccc4)cc2)O3)cc1`, the cytotoxicity call in the experiment with HSkMC is “inactive”. Also, the cytotoxicity call in the experiment with HepG2 was “active”. In the experiment on S. aureus RN4220, the growth inhibition call is “inactive”.
In the case of `CN1C[C@H](C(N)=O)CC1=O`, the cytotoxicity call with HSkMC and in the experiment with HepG2 was “inactive” in each case. Moreover, the growth inhibition call with S. aureus RN4220 is “inactive”.
With `COc1ccc(S(=O)(=O)N(C)C[C@H]2OCCCC[C@@H](C)Oc3ccc(NC(=O)NC4CCCCC4)cc3C(=O)N([C@H](C)CO)C[C@@H]2C)cc1`, the cytotoxicity call in the experiment on HSkMC and in the experiment on HepG2 was “inactive” in each case. The growth inhibition call in the experiment on S. aureus RN4220 is “inactive”.
Consider `COc1ccc(CNC(=O)C[C@@H]2CC[C@@H]3[C@H](COc4ccc(NC(=O)C5CC5)cc4C(=O)N3C)O2)cc1`, for which the cytotoxicity call in the experiment with HSkMC and in the experiment on HepG2 was “inactive” in each case. For the same compound, in the experiment on S. aureus RN4220, the growth inhibition call was “inactive”.
Turning to `Cc1ccc(S(=O)(=O)N(C)C[C@@H]2Oc3ncc(Br)cc3C(=O)N([C@@H](C)CO)C[C@@H]2C)cc1`, the cytotoxicity call in the experiment on HSkMC (human skeletal muscle cells) and with HepG2 was “inactive” each time. For the same compound, in the experiment on S. aureus RN4220, the growth inhibition call was “inactive”.
